Results: US20100311683A1, “CYTIDINE ANALOGS FOR TREATMENT OF MYELODYSPLASTIC SYNDROMES” (priority 2007, published 2010)
Read-outs that look alike come from different tables or passages of the source.

Key:
[1] = test system: patients with higher risk MDS
[2] = test system: patients with WHO AML
[3] = test system: patients with AML or high-risk MDS after HSCT; settings: human, in vivo
[4] = test system: patients with higher risk MDS; test: AZA-001 analysis: 1-year survival by IWG 2000 response category
[5] = test system: patients with higher risk MDS; test: Phase III AZA-001 trial: azacitidine vs conventional care regimens (overall survival, AML transformation, IWG 2000 response, transfusion independence, infections, safety); settings: human, in vivo, 75 mg/m^2/day

Nc1ncn([C@@H]2O[C@H](CO)[C@@H](O)[C@H]2O)c(=O)n1 [azacitidine, 4-amino-1-β-D-ribofuranosyl-1,3,5-triazin-2(1H)-one]
TEAE Blood and lymphatic system disorders, percent of patients per cycle ([1]; Cycles 7-8, N=107): 36%
TEAE Constipation, percent of patients per cycle ([1]; Cycles 7-8, N=107): 9%
TEAE Diarrhea, percent of patients per cycle ([1]; Cycles 7-8, N=107): 5%
TEAE Fatigue, percent of patients per cycle ([1]; Cycles 7-8, N=107): 6%
TEAE Gastrointestinal disorders, percent of patients per cycle ([1]; Cycles 7-8, N=107): 27%
TEAE General disorders and administration site conditions, percent of patients per cycle ([1]; Cycles 7-8, N=107): 32%
TEAE Injection site erythema, percent of patients per cycle ([1]; Cycles 7-8, N=107): 16%
TEAE Injection site reaction, percent of patients per cycle ([1]; Cycles 7-8, N=107): 9%
TEAE Nausea, percent of patients per cycle ([1]; Cycles 7-8, N=107): 14%
TEAE Neutropenia, percent of patients per cycle ([1]; Cycles 7-8, N=107): 19%
TEAE Pyrexia, percent of patients per cycle ([1]; Cycles 7-8, N=107): 6%
TEAE Thrombocytopenia, percent of patients per cycle ([1]; Cycles 7-8, N=107): 20%
TEAE Vomiting, percent of patients per cycle ([1]; Cycles 7-8, N=107): 8%
Patients with at least 1 individual AE occurring in ≥20% of patients, percent of patients per cycle ([1]; Cycles 9-10, N=89): 65%
TEAE Anemia, percent of patients per cycle ([1]; Cycles 9-10, N=89): 14%
TEAE Blood and lymphatic system disorders, percent of patients per cycle ([1]; Cycles 9-10, N=89): 36%
TEAE Constipation, percent of patients per cycle ([1]; Cycles 9-10, N=89): 17%
TEAE Diarrhea, percent of patients per cycle ([1]; Cycles 9-10, N=89): 5%
TEAE Fatigue, percent of patients per cycle ([1]; Cycles 9-10, N=89): 3%
TEAE Gastrointestinal disorders, percent of patients per cycle ([1]; Cycles 9-10, N=89): 30%
TEAE General disorders and administration site conditions, percent of patients per cycle ([1]; Cycles 9-10, N=89): 28%
TEAE Injection site erythema, percent of patients per cycle ([1]; Cycles 9-10, N=89): 11%
TEAE Injection site reaction, percent of patients per cycle ([1]; Cycles 9-10, N=89): 9%
TEAE Nausea, percent of patients per cycle ([1]; Cycles 9-10, N=89): 11%
TEAE Neutropenia, percent of patients per cycle ([1]; Cycles 9-10, N=89): 20%
TEAE Pyrexia, percent of patients per cycle ([1]; Cycles 9-10, N=89): 7%
TEAE Thrombocytopenia, percent of patients per cycle ([1]; Cycles 9-10, N=89): 21%
TEAE Vomiting, percent of patients per cycle ([1]; Cycles 9-10, N=89): 6%
anemia events managed with transfusions ([1]; in vivo): 87%
cumulative or delayed toxicities ([1]; in vivo): no cumulative or delayed toxicities
gastrointestinal events managed with concomitant medications ([1]; in vivo): 72%
gastrointestinal events that were transient ([1]; in vivo): 95%
hematologic AEs that were transient ([1]; in vivo): > 86%
hematologic events managed with delays in the next AZA cycle ([1]; in vivo): 99%
injection site reactions requiring treatment with concomitant medications ([1]; in vivo): < 15%
median duration of constipation ([1]; in vivo): approximately 1 week
median duration of diarrhea, nausea, vomiting ([1]; in vivo): 1 to 4 days
median duration of fatigue and pyrexia ([1]; in vivo): approximately 1 week
median duration of hematologic AEs ([1]; in vivo): ~2 weeks
median duration of injection site reactions ([1]; in vivo): 12 days
patients discontinued due to a hematologic event ([1]; in vivo): < 5%
patients in whom fatigue and pyrexia were managed by delay in the next AZA cycle ([1]; in vivo): approximately 5%
patients with neutropenia, anemia, or thrombocytopenia that required hospitalization ([1]; in vivo): ≤ 10%
thrombocytopenia events managed with transfusions ([1]; in vivo): 29%
AEs that resulted in discontinuation of AZA ([1]; most common AEs): Less than 1%
OS rate at 2 yrs [2]: 50%
RR hospitalization, AZA vs CCR [2]: 0.79
RR infections requiring IV antibiotics, AZA vs CCR [2]: 0.51
hazard ratio (HR) OS, AZA vs CCR [2]: 0.47
infections requiring IV antibiotics [2]: 0.58 per pt-year
rate of hospitalization [2]: 3.4 per pt-year
KM median OS ([2]; AZA n=55): 24.5 months
HR OS, AZA vs CCR ([2]; cytogenetic intermediate patients): 0.47
HR OS, AZA vs CCR ([2]; unfavorable cytogenetics): 0.66
infections: influenza/parainfluenza [3]: 2 n
hazard ratio OS, AZA vs CCR ([4]; CR patients excluded from the analysis): 0.65
one year survival rate ([4]; IWG 2000 best response CR): 96.7%
one year survival rate ([4]; IWG 2000 best response HI): 96.0%
one year survival rate ([4]; IWG 2000 best response PR): 85.5%
one year survival rate ([4]; IWG 2000 best response SD): 73.3%
one year survival rate ([4]; all AZA-treated patients): 68.2%
patients alive at one year ([4]; disease progression (DP)): 28.6%
deaths considered related to treatment during the first 3 cycles [5]: 4 patients
